In the supplement of paper PMC3334620:
Whole data set: some 33,000 sequences, median “E-score (-0.5 to 0.5)” near -0.054, cut for the highest 2% near 0.35. The list shows a part of the results.

Molecular target: T1, Stb5 (UniProt P38699)
T1 sequence: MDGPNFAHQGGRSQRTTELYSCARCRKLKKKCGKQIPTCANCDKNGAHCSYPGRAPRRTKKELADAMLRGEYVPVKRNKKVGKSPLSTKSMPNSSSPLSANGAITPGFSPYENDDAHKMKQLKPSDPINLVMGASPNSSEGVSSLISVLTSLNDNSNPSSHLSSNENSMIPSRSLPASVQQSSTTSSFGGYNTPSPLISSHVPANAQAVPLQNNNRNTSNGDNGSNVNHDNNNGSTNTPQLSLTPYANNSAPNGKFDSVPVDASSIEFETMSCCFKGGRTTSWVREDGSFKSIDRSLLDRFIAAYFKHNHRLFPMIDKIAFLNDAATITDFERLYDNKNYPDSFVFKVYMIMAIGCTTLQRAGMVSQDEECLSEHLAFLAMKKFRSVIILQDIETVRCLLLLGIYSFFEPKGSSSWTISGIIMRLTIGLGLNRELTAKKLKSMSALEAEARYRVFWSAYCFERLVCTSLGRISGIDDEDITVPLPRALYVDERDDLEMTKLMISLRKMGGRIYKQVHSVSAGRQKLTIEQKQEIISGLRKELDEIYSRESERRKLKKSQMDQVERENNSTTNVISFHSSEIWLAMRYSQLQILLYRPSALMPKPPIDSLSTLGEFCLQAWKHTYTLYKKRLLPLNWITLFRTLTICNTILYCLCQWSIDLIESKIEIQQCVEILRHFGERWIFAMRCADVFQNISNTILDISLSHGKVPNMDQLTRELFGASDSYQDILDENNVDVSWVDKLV
Assay: PBM E-score (8-mer binding enrichment) (E-score (-0.5 to 0.5)); higher = stronger / more preferred TF binding; most listed sequences are background and not binding sites
Details: protein concentration: 200 nM; construct: GST-full length
Description: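 Universal 'all 10-mer' protein binding microarrays (Agilent AMADID 015681) probed with GST-tagged S. cerevisiae TFs (full-length or DBD) made by in vitro transcription/translation (PURExpress), about 100-200 nM. Bound TF was detected with fluorescent anti-GST. Each ungapped 8-mer (which stands for itself and its reverse complement) is scored by the PBM enrichment score (E-score), a modified Wilcoxon-Mann-Whitney statistic from -0.5 to +0.5, computed with the Universal PBM Analysis Suite. Scale: above 0.35 generally sequence-specific binding.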

| Sequence | PBM E-score |
| --- | --- |
| CGGGTCGA | 0.116 |
| CCTACCGA | 0.0132 |
| AAAGGGTG | -0.115 |
| ACGGATTG | 0.099 |
| GATGCTGC | -0.0585 |
| ACCCCTCT | 0.0376 |
| CGGCTTTC | 0.061 |
| AGCTAGAG | -0.205 |
| ACTCCTTC | -0.202 |
| ACCGTGTG | 0.134 |
| GAGGTCTA | -0.245 |
| CGCAATCC | 0.0687 |
| AATTACTC | -0.0204 |
| GTTAGGCA | -0.213 |
| ACTGTCAG | -0.155 |
| ACGGTCTC | 0.243 |
| AGTACGCC | 0.009 |
| GGGTAGTA | -0.0884 |
| CACATCAG | -0.0846 |
| ATTAGTCG | 0.0412 |
| ACTCCCTA | -0.275 |
| CGGCTTAG | 0.00985 |

| Sequence | PBM E-score |
| --- | --- |
| CCTAACAC | 0.107 |
| AAACTTCT | 0.141 |
| GGCAAGCC | -0.0595 |
| AAGGACAA | -0.0259 |
| AATTTGTG | -0.00811 |
| CTGGGACA | -0.232 |
| AACGCACT | 0.0122 |
| CCGGCTAA | 0.191 |
| GTAGCGCA | 0.0352 |
| GCGTATTA | -0.0551 |
| TAGCGCAA | -0.0698 |
| GCGGCAGC | 0.16 |
| TAACTATA | -0.017 |
| GCCCAGGA | -0.199 |
| AATCGAAT | 0.0626 |
| GACTAGCA | -0.14 |
| ACGTAGGA | -0.111 |
| CTTTAGAA | -0.0154 |
| ACGCTGTA | -0.163 |
| CTATAATC | 0.019 |
| CTGCCGCA | 0.0632 |
| AATGCCGA | 0.419 |

| Sequence | PBM E-score |
| --- | --- |
| CACCCGAA | 0.0469 |
| GTCGTCGA | -0.0575 |
| AGCGCCGC | 0.41 |
| GGCGAAAA | 0.0996 |
| AGCAGAGA | -0.288 |
| ACGAAATG | -0.178 |
| GAAGTCCA | -0.0947 |
| GCATTTAA | 0.18 |
| CCATCGCG | 0.195 |
| CCGAGCAC | 0.00436 |
| AGAAGGCA | -0.169 |
| ACTAGAGG | 0.0762 |
| ATCACTCA | -0.212 |
| GGGAGCGA | -0.286 |
| GATCTAAA | 0.159 |
| GATACTCA | 0.158 |
| GACTCGCC | -0.131 |
| CCGAGTGA | 0.1 |
| GGGATGCA | -0.232 |
| ACAATCTA | -0.243 |
| GCTTAGCC | 0.127 |
| CATCTGGG | -0.279 |

| Sequence | PBM E-score |
| --- | --- |
| CGCACACC | 0.0245 |
| ACGGCTTA | -0.0299 |
| ATCTACCG | 0.122 |
| AACTAGAG | -0.163 |
| TGACTGAA | -0.169 |
| AGACACGA | -0.175 |
| AATTACAA | -0.176 |
| AGATTTAT | 0.169 |
| GGGGACGA | -0.0481 |
| AACATAAA | -0.0956 |
| ACAACACG | -0.192 |
| TTAGGCAA | -0.13 |
| CCATACGG | 0.124 |
| CATATCAG | -0.0257 |
| GATTGCGA | 0.0469 |
| CGGTTGAC | 0.0802 |
| AGATTCTG | -0.218 |
| CGTAAAGA | -0.0109 |
| CTGCTAGA | 0.0321 |
| CAGACCCA | -0.22 |
